# Laboratory results from the supplement of paper PMC11417369.
# ± gives the standard deviation of the averaged measurements. This is one part of the list.
# System: PfAP2-EXP AP2 domain (GST-tagged)
# Experiment: gcPBM binding intensity (ln(normalized median fluorescence intensity)); higher = stronger DNA binding
# Method in brief: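 DNA-binding domains from P. falciparum, fused to GST and produced in E. coli, were put on an Agilent 4 × 180k double-stranded probe array for 1 h in 1× PBS holding 1% milk, 0.2 mg/ml BSA, 0.5% salmon testes DNA and 0.03% Triton X-100. Probes were primer-extended, 36 bp long and drawn from intergenic genomic regions, with negative controls included. After Alexa488 anti-GST antibody detection and a 488 nm scan, binding intensity was set as the highest Masliner-normalised natural-log median intensity across replicate spots of either probe orientation.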
row,Sequence,gcPBM binding intensity (ln)
1,TATATATAGAAACACACACACAAAAAAAAAAAAAAA [CACACA_site1506],8.24 ± 0.42
2,ATTTAAAAAACTTTTAGCAAAAAAAAAAAATAATAA [TGCATGCA_negctrl_site191],8.45 ± 0.45
3,TTGTTTTGCTAAAAATGTACTCTATATAAAAGCTTT [XGTACX_site4027],8.37 ± 0.28
4,TATATATATTATATATGTACACATATGTGAGAATGA [XGTACX_site2992],9 ± 0.38
5,ATTTATATGTAGATGTGTACTTAATTGTAATGTGTT [XGTACX_site6422],8.47 ± 0.37
6,TATCAAAATAAATGCACACAAATTGCACATATCTAT [CACACA_site1097],8.43 ± 0.11
7,CAAAAACATACCTACACACACAATATGTATAAATAA [CACACA_site7617],8.47 ± 0.59
8,AACTTTTTTATATGCACACATAAACAAGGATATATA [CACACA_site2874],8.67 ± 0.2
9,AAAAAAAAAAAAAACACACACACACCCATACACATA [CACACA_site2860],8.57 ± 0.33
10,TATATATACATAAAAACATGCAATATATACACATTA [TGCATGCA_site444],8.46 ± 0.3
11,CAAAAAATACGATGTTGTACTATGTATTCCTGATGT [XGTACX_site246],8.35 ± 0.28
12,TACTTCGATAATAATCGTACATATATATTGTATTTA [XGTACX_site5700],8.63 ± 0.38
13,TTTTCTTTTAAACATATATATATATATATATATATA [XGTACX_negctrl_site559],10.4 ± 0.23
14,TGTAGACTACATAGTAGTACATAATATATACATATA [XGTACX_site367],8.32 ± 0.38
15,TATATATATATAATTACACACAATGTTCTATATATA [CACACA_site3235],9.72 ± 0.16
16,TATTTATTTAATTACACACGAACATATAACCATTTC [CACACA_site211],8.72 ± 0.35
17,ATTTCTTTGCTTTTCAAACACACAAAAGTTATTATA [CACACA_site520],8.69 ± 0.47
18,GTTGAAAAAAAAAATGCACACGCATACATATAATAT [CACACA_site8117],8.63 ± 0.4
19,GAATATTACATGTATTGTACAGGTAATGTTAAAAAT [XGTACX_site8274],8.72 ± 0.4

row,Sequence,gcPBM binding intensity (ln)
1,TTTTTTGTATTTTTCACACACTCTCTATCTCTCTCA [CACACA_site2095],8.87 ± 0.48
2,AAAAAAAAAAAAAAAACACACATATATATTATTGTA [CACACA_site3979],8.48 ± 0.18
3,TAACATAAATCCATACGTACCTATATATATATAATA [XGTACX_site2626],8.58 ± 0.33
4,ATTTATATTAAAAGTGTGCACTTTTTTTTTTTTTTT,8.67 ± 0.042
5,TCATTCCATACTTTAACACACAAATATATTTAATCC [CACACA_site145],8.76 ± 0.53
6,ATATATATATATATATGTACATATTCACTTATATTT [XGTACX_site5324],10.1 ± 0.45
7,TTTTTTTTTTTGTTTTGTACATAAATTGCAACCAAT [XGTACX_site8949],8.73 ± 0.57
8,TAATCATAAAAAAATACACACATATAAAATATAGAT [CACACA_site7020],8.56 ± 0.4
9,ATATTTATAAATTGCACACAAATAATAACATTATAT [CACACA_site5322],8.48 ± 0.26
10,AAAAGTTAAGCAACAAATTTTATTTCTTATATATAA [TGCATGCA_negctrl_site134],8.3 ± 0.34
11,AAAATTCTTATAAGATGTACAATTTGTAACACTATA [XGTACX_site510],8.62 ± 0.42
12,TTTTTTACAACACGAAAATGAACAATTATAATAAAT [TGCATGCA_negctrl_site301],8.76 ± 0.53
13,TTATACTCACGTTACACACACACAATATATATATAT [CACACA_site4137],9.96 ± 0.38
14,AAATAAATATATAATACACACAAAAATATAAAATGT [CACACA_site3711],8.95 ± 0.32
15,TTTTGTATATATTATTGTACTTTTAATATAGATCGT [XGTACX_site5830],8.54 ± 0.4
16,TCACATACATTACTTACACACCATATTAAGATATAC [CACACA_site4415],8.68 ± 0.43
17,AGTAAAAAAAATATCTGTACATATTAATATAAATGT [XGTACX_site6234],8.54 ± 0.26
18,AAATATTATTCTTTTATTTTTAAACATATAATTATA [GTGCAC_negctrl_site136],8.26 ± 0.38
19,ATCTAAAAATTTTACGCACACAAGTAAAAAAAAAAA [CACACA_site2485],8.76 ± 0.43

row,Sequence,gcPBM binding intensity (ln)
1,TTATACACTGATAAAAGTACATTTGTATGTTTTTTT [XGTACX_site8959],8.35 ± 0.27
2,TTTTATAATCATAATAGTACTTTTTCTTTTTCACAT [XGTACX_site5017],8.48 ± 0.4
3,AATAATTTTTTAAACACACACACATATATATATATA [CACACA_site95],10.1 ± 0.3
4,ATAAAGAAATAAAGTTGTACATTATATATATATATA [XGTACX_site7729],10 ± 0.42
5,TGTTTAAAAATAATTTGTACATATATTTTATTTCAT [XGTACX_site1272],8.39 ± 0.38
6,AATACATACGGACACACACACACATATATATATATA [CACACA_site5884],10.3 ± 0.17
7,TCTTTTGTTTAACCTACATGCAGAATATAAGTCTTC [TGCATGCA_site99],9.03 ± 0.28
8,ATTCATTATTCACCTTGTACACAAATGATTATCGTA [XGTACX_site455],8.84 ± 0.35
9,AAAAAAAAAAGAAACACACACATTTGTCTATAATAT [CACACA_site7063],8.8 ± 0.71
10,ATGTATGCAAAAATGGTGCATATTAAATGTATAACA [GTGCAC_site9722],9.035 ± 0.078
11,TTTGTTCTTTTAATGTGTACATATACACTTGTAATA [XGTACX_site2635],8.7 ± 0.39
12,TGACCTTATGTGTTTTGAAGGGGAAAGGAAATGCGC [XGTACX_negctrl_site411],8.72 ± 0.4
13,TATAAAAATAGGATTTGTACATATAAAAAAGGAAAA [XGTACX_site8678],8.71 ± 0.53
14,CAGAAATAGAGATACACACACACATATATTTATGTA [CACACA_site3968],8.46 ± 0.33
15,TATAAATATATGTATGCACACATTTTTTTTGGAAAA [CACACA_site1070],8.4 ± 0.35
16,TAATATAAAAAAGGTACTACACGAAGGAATAAAAAT [XGTACX_site6872],9.26 ± 0.58
17,GGTATAATTCATATAACACACATTTCAATGTTAAAA [CACACA_site2172],8.49 ± 0.52
18,TGTATTAATTTGTAATGTACACATATATGTATTATA [XGTACX_site4152],8.58 ± 0.42
19,TAAGTAAACTTTCTATGTACATATTTTCAAATATTA [XGTACX_site6260],8.55 ± 0.4
